Results from the supplement of paper PMC3334620.
Over roughly 33,000 sequences, “E-score (-0.5 to 0.5)” has its median near -0.04; the highest 2% begin near 0.36. The list shows a part of the results.

Each sequence was assayed against T1, Hmlalpha2 (UniProt P0CY09) (assay: PBM E-score (8-mer binding enrichment) (E-score (-0.5 to 0.5)); higher = stronger / more preferred TF binding; most listed sequences are background and not binding sites). Settings: protein concentration: 200 nM; construct: GST-full length.
T1 sequence: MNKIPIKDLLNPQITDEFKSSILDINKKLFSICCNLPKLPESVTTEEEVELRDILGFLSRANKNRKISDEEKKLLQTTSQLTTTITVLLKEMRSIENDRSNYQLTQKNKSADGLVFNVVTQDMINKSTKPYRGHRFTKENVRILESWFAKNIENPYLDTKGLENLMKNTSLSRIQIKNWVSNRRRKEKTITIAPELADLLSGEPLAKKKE
Protocol: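 Universal 'all 10-mer' protein binding microarrays (Agilent AMADID 015681) probed with GST-tagged S. cerevisiae TFs (full-length or DBD) made by in vitro transcription/translation (PURExpress), about 100-200 nM. Bound TF was detected with fluorescent anti-GST. Each ungapped 8-mer (which stands for itself and its reverse complement) is scored by the PBM enrichment score (E-score), a modified Wilcoxon-Mann-Whitney statistic from -0.5 to +0.5, computed with the Universal PBM Analysis Suite. Scale: above 0.35 generally sequence-specific binding.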

Sequence	PBM E-score
AGGGCATA	-0.164
CGTGTTAC	0.41
GTGAGTAA	0.258
ATTGATTA	0.213
GTATAATA	0.368
ATTAAATC	0.173
GTCCTAAA	0.0308
ACCGGGGG	-0.342
ACGTCGCC	-0.0245
ACCCTTTG	-0.331
CCACCAGG	-0.268
AGTAGGGC	-0.0369
CGTTTTAC	0.301
AACGGGAT	-0.155
CTACGCCC	-0.211
CTATAAAC	0.124
TAGTTCGA	0.112
CTAGATTA	0.114
CAGTACGA	-0.014
TCCAACGA	0.0156
ACCGAAAC	-0.031
CTTAGGGC	-0.128
AGTGGTAG	-0.175
CAAAGTCG	0.0302
ATTGTGCC	-0.142

Sequence	PBM E-score
GCGCGAAC	-0.0057
ATGGTAGG	-0.138
GTAGCTCA	0.0324
TAACGACA	0.281
GATTCGGC	-0.0401
ATCAAAGA	-0.0111
GCCTATCC	-0.262
CCCTAGAG	-0.232
ACGTTCAA	0.206
GGATAACA	0.28
AGCATGTC	0.267
ATATTAGG	0.0302
AGGATGGA	-0.311
AGTACCCC	-0.145
ATCGACAA	0.0291
ATTGCAAT	-0.0745
GCCACTCA	-0.231
GACTCACC	-0.263
TATAGGAA	0.104
CTTCGAAC	-0.0996
GGACTGCA	-0.141
GTATCAGA	-0.00972
CAGTTGTC	-0.0222
ATCGGCGG	-0.29
CTTGGGTA	0.0421

Sequence	PBM E-score
GACTAGAA	-0.0547
CGGACCCC	-0.179
ACATCAGC	0.0796
ACGTGCCT	0.0976
ATTTGGGA	-0.168
AAACTAAT	0.175
GTTACAAC	0.258
ATCTTCGG	0.177
ATCCCATC	-0.181
AGCCTGCG	-0.16
ATGTCAAT	0.4
GAGTGGTA	-0.0287
GTCCCCAC	-0.345
AATCGAAC	0.0857
ATGGAAAA	0.126
ACCTCCAA	-0.0293
ACGGGTCA	-0.221
CCTGATCG	-0.296
GAGCTAAA	-0.115
TCCTGCCA	-0.249
ATTTGTGA	0.00713
AAATTGAT	0.0196
GGACAAAC	0.0772
AACATCCA	0.187
ATCAATGC	-0.0943

Sequence	PBM E-score
ATAGCCAG	-0.0612
GAAAAGGA	-0.129
GACCAAGC	-0.0531
AATAACAC	0.396
CCACCAAG	-0.31
ACATCAAC	0.255
AAACCCAG	0.025
CCAAAGTA	-0.0127
AGGCTGAG	-0.172
ACATCAAT	0.273
CAAACCAC	-0.0658
GAAGTTAA	0.227
CGACAAGC	0.1
CAACATCC	0.0197
CGCTGTGC	-0.0825
CCGGGAGC	-0.408
AGGGACCT	-0.163
ATGATCTG	0.0563
AAATACAT	0.441
ACAACTGC	0.0498
AGGACAAT	-0.107
GATAGCAA	0.0619
ATGCATTA	0.2
ACTGAGCC	-0.127
CCGTTATA	0.174

Sequence	PBM E-score
ACACAGAG	0.302
GAGTCAGA	-0.16
ACTAACAG	0.0571
AACTCCGA	-0.114
AGTGTTAA	0.374
AAAAACGG	-0.0735
CCAATTAA	0.0839
CTGTAGAA	0.161
AGAGGAAA	-0.0215
CAATAAAA	0.0694
CCGGCTGC	0.0149
AATCTCTG	-0.082
CTGATGGA	-0.268
AAAAGGCC	-0.176
AGAGAGAA	-0.107
AGTCTGAA	-0.114
ACGCCTTG	-0.0206
AAAGCTTT	0.0499
ATAGTCTC	0.069
ACAGCCCG	-0.177
AAAACAGT	0.00087
AGTACGGA	-0.11
ACTCAGAC	0.0463
GCAGATTA	-0.00685
CAGTGCCG	-0.109

Sequence	PBM E-score
AATTATTC	0.14
CGGGGTAG	-0.318
ACCACCAC	-0.0208
AGCTAAGG	-0.0419
AGAAATTC	-0.123
AAATCGCA	-0.186
CGCTGCCC	-0.166
CCTTGTGA	0.0902
CGGTTTCA	0.0015
CAAGGTGG	0.0166
CACAACGA	0.166
GAGGCCTA	-0.23
AGGGCGCA	-0.164
CTGAGCGA	-0.0535
ATGGAGGA	0.0206
CAGGGTCA	-0.169
CACGTATC	0.101
ACAATCCG	0.0885
GGTAAAAC	0.215
CAAACCTG	0.0013
GGAGAACA	0.0647
CTAGCAAG	-0.133
CAGAGAGA	-0.126
GAAGGAGA	0.0569
ATAACTGG	-0.197

Sequence	PBM E-score
AAATCCAA	0.0423
ACGGTTCA	-0.211
GAGTTACC	0.0792
ACGGGCTC	-0.274
GAACCGTC	-0.191
AGAGATCT	-0.139
AGGCACAA	-0.038
GCACCAAC	-0.0323
GCGCGACA	0.0127
CAGAGCTC	-0.142
CCCCACTA	-0.194
CAGCATAC	-0.0768
GGGAATGA	-0.21
GAGGTGCC	-0.244
ATCTATTG	-0.0525
TACGACTA	0.0552
GCCACTTA	-0.0823
AGACGCGG	0.0088
TAGATGAA	0.186
CCCGCAAC	0.0639
CGGTGGCC	-0.24
ACGCTAGT	0.0303
GAGGCTAA	-0.098
CGGCAGGA	-0.345
AAAAACTG	-0.104

Sequence	PBM E-score
CAACCTCA	-0.0212
CGGAAGAA	-0.0588
GCCCTTGA	-0.127
CTACTGCC	-0.334
TACGAACA	0.248
AAGGTGAG	-0.203
AAGCCTCT	-0.29
AAGCTGCA	0.0105
CAAATTGA	-0.017
CACGGTTC	0.156
CCGAATTA	0.0154
AAGCACCC	-0.201
GCGCAGTA	-0.147
TTGTTAAA	0.359
CATAATCC	-0.0874
AGAACAGG	0.0558
ATATCTTC	-0.0479
GAATGGGA	-0.228
CTTGCCCC	-0.317
ACTACGTC	0.0817
GATCGTCC	-0.228
ACATCTGC	0.0406
GGTGTCGA	-0.0862
CTGAGGAC	-0.24
AAATATGA	0.0694

Sequence	PBM E-score
ATCGAACG	-0.0528
ACCTACCT	-0.0969
ATGACGCC	-0.105
ACCAGATC	-0.114
ATAATCAT	0.205
CATGACCA	0.0558
CCCGTGCG	-0.0484
GGCTAGCA	-0.22
AACATATG	0.326
ACATAGTA	0.356
AACTTAAT	0.221
CCAATCAA	-0.0111
AGGGTAAA	0.0323
CTATGCGA	-0.121
CCTTGAGA	-0.0513
CCAGTATC	-0.296
AAGGAAAA	0.0876
AGGGCAAT	-0.29
AAGGCGGC	-0.162
ACAACGCG	0.253
GAGTGTAA	0.295
GAGCTCGC	-0.141
CGATCCTA	-0.14
AGGGAACC	-0.134
ATATCCAG	-0.0481

Sequence	PBM E-score
CCCACTTC	-0.22
GGGTACGA	-0.195
ATCTACAT	0.452
ATAGGGAG	-0.233
ATAATCCA	0.0175
AAACATAA	0.348
CCGGTCGA	-0.373
TAAACATA	0.416
GCACCGGC	-0.182
TACAAGTA	0.322
CGTGCCGA	-0.085
ATCCTACG	-0.115
AGGGCGTA	0.0328
CGGTAGGA	-0.218
AGGGATAA	0.0832
GACCCTGC	-0.287
ATTCACGA	0.149
GCCGCCGA	-0.109
ATTTGTTG	0.206
ACTAGTCT	0.039
AGGCAAAG	-0.132
AATGGAGA	-0.187
ATTGCAAA	0.102
CGTAAGTC	0.0646
ACCATTCG	0.0719

Sequence	PBM E-score
GGGACAAC	-0.075
ATTAAGTA	0.146
CGTTAATA	0.23
CGGTTAGC	-0.177
CAATCAGG	-0.159
TATGACAA	0.118
GGGAAAAC	-0.184
GACTGTCC	-0.237
CAAGCTTA	-0.0927
GCCGGCCC	-0.31
GCCTTGCC	-0.238
CAGCTACA	0.135
GACTAAGC	-0.194
AATCTGAG	-0.142
CTTTAAAA	0.145
GAGTATAC	0.191
GTGCCCAA	-0.0154
ACGGTCTG	0.0399
CAATACGA	0.13
GGTAAGCA	-0.0728
ACGGGTTG	-0.15
ATGGGCGC	-0.196
TCTGTTAA	0.331
ACATGAGA	0.406
ATTAGAAC	0.122

Sequence	PBM E-score
AAACCCCT	-0.266
AGCACGCA	0.0284
ACTACGCT	0.106
TGCATCCA	-0.132
TCAGGGCA	-0.0208
CTACGCCA	-0.0483
CCGAAGTC	-0.122
GCACACCC	-0.227
GATTGTAA	0.247
AAACGGAG	-0.0644
CAACTTAG	0.191
CTGTTATA	0.29
ACGACGAG	-0.0291
AAGCTATT	-0.0585
CCGGAGCG	-0.232
GCCAACGA	-0.105
AAATTTAG	0.0397
AACAAACA	0.309
CAACGGGC	-0.145
CCTGCGTC	-0.101
GATGTTCA	0.0603
ACAAGTTG	0.119
GACGGTCC	-0.359
AGCCGTAC	-0.148
CGAGCATC	-0.152

Sequence	PBM E-score
AGAACGAA	-0.11
AGCCGACT	-0.219
ACAAACAG	0.139
TCTGGGCA	-0.286
TGAAGACA	0.0849
GATAAGAA	0.172
CCCGGCCA	-0.263
CGCGCCGA	0.0621
GCTGCGCC	-0.257
CAACTAAG	-0.0633
AGCCCTTC	-0.278
TTACGTAA	0.426
CAAGTCTC	-0.0515
CAGCTGCA	-0.283
ACGTCCAC	-0.0151
AGCATAAA	0.0915
GAACCAAA	-0.0881
AGCCACCC	-0.289
ACCGAAAT	-0.0128
AGCAGTCG	-0.161
AAAGGTAT	0.076
ACCTAAGC	-0.11
CGGATACC	-0.019
AGATCAGA	-0.0413
CGTTCTCC	0.00164

Sequence	PBM E-score
AGTAGGAC	-0.22
TGCCACCA	-0.261
ACTGATAG	-0.0287
ACGTTAAG	0.255
AGAAGCAC	-0.076
ATCTAACG	0.109
GGTGCTCA	-0.179
CGGACCGC	-0.316
AATCTAGA	0.0688
AAGACGTC	-0.148
CCTATGAG	-0.201
AGAGCGAC	-0.106
AGATGACG	0.0621
AAAAACGC	0.156
AGCTAGTC	-0.0662
CATCTCGC	-0.178
AGTTGCGA	-0.00184
ACCTGCAG	-0.0825
AACTGTCA	-0.083
